Assay results reported in article PMC11050252.
These are yes or no findings as the source states them, for the method shown. Binding seen in cells or lysates may run through a third protein. Some binding calls cover weakened binding; strength is not graded here.

By UniProt entry, the sequences of proteins in these tests, tags left out.
UniProt Q91YS8: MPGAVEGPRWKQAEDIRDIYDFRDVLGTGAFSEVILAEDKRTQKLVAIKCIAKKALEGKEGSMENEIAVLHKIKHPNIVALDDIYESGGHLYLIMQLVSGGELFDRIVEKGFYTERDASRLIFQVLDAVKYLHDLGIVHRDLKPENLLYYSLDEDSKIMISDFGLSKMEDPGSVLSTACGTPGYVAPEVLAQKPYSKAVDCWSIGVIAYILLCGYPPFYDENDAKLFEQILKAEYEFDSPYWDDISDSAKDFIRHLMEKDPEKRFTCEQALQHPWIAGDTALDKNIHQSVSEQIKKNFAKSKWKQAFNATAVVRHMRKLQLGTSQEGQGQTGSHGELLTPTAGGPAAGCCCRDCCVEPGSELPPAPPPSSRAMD
UniProt Q8K1M6: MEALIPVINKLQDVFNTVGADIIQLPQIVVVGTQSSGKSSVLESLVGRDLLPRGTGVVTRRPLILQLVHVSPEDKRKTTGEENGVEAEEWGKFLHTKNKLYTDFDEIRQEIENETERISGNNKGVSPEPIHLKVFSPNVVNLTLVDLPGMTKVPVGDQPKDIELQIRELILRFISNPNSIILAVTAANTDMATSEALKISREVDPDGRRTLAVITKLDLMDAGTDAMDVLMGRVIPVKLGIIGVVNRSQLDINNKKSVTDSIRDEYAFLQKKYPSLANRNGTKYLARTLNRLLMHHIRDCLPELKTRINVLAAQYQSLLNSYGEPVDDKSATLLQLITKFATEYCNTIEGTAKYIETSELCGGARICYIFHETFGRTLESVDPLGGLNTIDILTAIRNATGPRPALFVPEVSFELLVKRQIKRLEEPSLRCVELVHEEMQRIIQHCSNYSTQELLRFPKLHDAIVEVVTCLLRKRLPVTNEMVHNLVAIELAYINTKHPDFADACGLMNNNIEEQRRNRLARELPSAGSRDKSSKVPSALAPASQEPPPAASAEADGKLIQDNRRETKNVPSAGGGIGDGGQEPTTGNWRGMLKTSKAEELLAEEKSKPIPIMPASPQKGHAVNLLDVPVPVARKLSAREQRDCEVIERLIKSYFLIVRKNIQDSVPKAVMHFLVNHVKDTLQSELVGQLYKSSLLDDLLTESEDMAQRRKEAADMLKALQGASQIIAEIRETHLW
UniProt Q9QZL0: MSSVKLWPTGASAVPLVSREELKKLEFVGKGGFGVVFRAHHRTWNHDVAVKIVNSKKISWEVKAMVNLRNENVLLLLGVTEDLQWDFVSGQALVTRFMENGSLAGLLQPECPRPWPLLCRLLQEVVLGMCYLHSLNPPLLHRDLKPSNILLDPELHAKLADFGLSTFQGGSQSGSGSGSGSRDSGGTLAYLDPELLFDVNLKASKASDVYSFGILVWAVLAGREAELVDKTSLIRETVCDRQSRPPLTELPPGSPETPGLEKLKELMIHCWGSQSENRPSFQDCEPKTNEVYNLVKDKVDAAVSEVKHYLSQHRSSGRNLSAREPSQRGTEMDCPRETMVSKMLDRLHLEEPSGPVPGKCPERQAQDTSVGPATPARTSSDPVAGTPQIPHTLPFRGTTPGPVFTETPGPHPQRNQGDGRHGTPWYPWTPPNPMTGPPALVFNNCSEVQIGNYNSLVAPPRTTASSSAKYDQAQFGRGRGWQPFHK

T1: phosphoglycerate mutase 5 (PGAM5) (mouse (endogenous in MVEC)) (UniProt Q8BX10)
T1 sequence: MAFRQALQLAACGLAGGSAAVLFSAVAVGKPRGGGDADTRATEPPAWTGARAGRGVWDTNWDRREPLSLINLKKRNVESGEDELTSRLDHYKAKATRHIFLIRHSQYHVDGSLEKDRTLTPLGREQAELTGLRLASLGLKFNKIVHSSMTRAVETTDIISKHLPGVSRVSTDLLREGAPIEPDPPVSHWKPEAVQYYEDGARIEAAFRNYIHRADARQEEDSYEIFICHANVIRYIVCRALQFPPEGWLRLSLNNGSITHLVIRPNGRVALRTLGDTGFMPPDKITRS

T2: calmodulin-dependent protein kinase 4 (CaMK4) (mouse (endogenous in MVEC)) (UniProt P08414)
T2 sequence: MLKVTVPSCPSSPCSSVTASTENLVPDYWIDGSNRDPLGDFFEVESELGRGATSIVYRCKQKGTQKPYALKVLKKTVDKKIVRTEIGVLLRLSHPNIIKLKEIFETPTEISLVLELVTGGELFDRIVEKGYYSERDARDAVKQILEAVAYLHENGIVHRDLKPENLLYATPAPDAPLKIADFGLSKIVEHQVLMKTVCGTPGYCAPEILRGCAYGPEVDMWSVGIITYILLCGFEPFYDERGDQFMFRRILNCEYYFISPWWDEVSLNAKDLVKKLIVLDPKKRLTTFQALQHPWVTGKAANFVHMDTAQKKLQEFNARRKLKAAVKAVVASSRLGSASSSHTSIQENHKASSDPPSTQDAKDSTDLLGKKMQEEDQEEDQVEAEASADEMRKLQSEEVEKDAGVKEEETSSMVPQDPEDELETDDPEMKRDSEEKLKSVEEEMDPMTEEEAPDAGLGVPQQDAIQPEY


Key:
[1] = molecular target: T1, phosphoglycerate mutase 5 (PGAM5) (mouse (endogenous in MVEC)); experiment: condition: only untreated and vehicle control treated cells (no necroptosis induction); co-IP; endogenous proteins of untreated and vehicle control treated mouse MVEC (no necroptosis induction); RIPA lysate, antibody, protein G agarose, Western blot
[2] = molecular target: T2, calmodulin-dependent protein kinase 4 (CaMK4) (mouse (endogenous in MVEC)); experiment: as above
[3] = molecular target: calmodulin-dependent protein kinase 1 (CaMK1) (mouse (endogenous in MVEC)) (UniProt Q91YS8); experiment: as above
[4] = molecular target: T1, phosphoglycerate mutase 5 (PGAM5) (mouse (endogenous in MVEC)); experiment: co-IP; endogenous proteins of mouse MVEC induced to undergo necroptosis (TNFα + Smac mimetic BV6 + caspase-8 inhibitor z-IETD), collected after 4 h; RIPA lysate, 1 μg antibody 1-2 h at 4 °C, protein G agarose overnight at 4 °C, Western blot; rabbit IgG as control; in some panels cells treated 24 h before with vehicle or siRNA to CaMK1, CaMK2, CaMK4 or PGAM5
[5] = molecular target: T2, calmodulin-dependent protein kinase 4 (CaMK4) (mouse (endogenous in MVEC)); experiment: as above
[6] = molecular target: calmodulin-dependent protein kinase 1 (CaMK1) (mouse (endogenous in MVEC)) (UniProt Q91YS8); experiment: as above
[7] = molecular target: T2, calmodulin-dependent protein kinase 4 (CaMK4) (mouse (endogenous in MVEC)); experiment: as above; remark: listed apart in the source
[8] = molecular target: calmodulin-dependent protein kinase 1 (CaMK1) (mouse (endogenous in MVEC)) (UniProt Q91YS8); experiment: as above; remark: listed apart in the source

Molecule | binding [1] | binding [2] | binding [3] | binding [4] | binding [5] | binding [6] | binding [7] | binding [8]
dynamin-related protein-1 (Drp1) (from UniProt Q8K1M6 1-736) | no binding | no binding | no binding | binds | binds | binds |  | 
receptor-interacting protein kinase 3 (RIPK3) (from UniProt Q9QZL0 1-486) |  |  |  |  | binds | binds |  | 
phosphoglycerate mutase 5 (PGAM5) (protein, UniProt Q8BX10 1-288) MAFRQALQLAACGLAGGSAAVLFSAVAVGKPRGGGDADTRATEPPAWTGARAGRGVWDTNWDRREPLSLINLKKRNVESGEDELTSRLDHYKAKATRHIFLIRHSQYHVDGSLEKDRTLTPLGREQAELTGLRLASLGLKFNKIVHSSMTRAVETTDIISKHLPGVSRVSTDLLREGAPIEPDPPVSHWKPEAVQYYEDGARIEAAFRNYIHRADARQEEDSYEIFICHANVIRYIVCRALQFPPEGWLRLSLNNGSITHLVIRPNGRVALRTLGDTGFMPPDKITRS |  |  |  |  |  |  | no binding | no binding
